In the supplement of paper PMC3334620:
Over roughly 33,000 sequences, “E-score (-0.5 to 0.5)” has its median near -0.035; the highest 2% begin near 0.34. The list shows a part of the results.

Target: T1, Mot3 (UniProt P54785)
T1 sequence: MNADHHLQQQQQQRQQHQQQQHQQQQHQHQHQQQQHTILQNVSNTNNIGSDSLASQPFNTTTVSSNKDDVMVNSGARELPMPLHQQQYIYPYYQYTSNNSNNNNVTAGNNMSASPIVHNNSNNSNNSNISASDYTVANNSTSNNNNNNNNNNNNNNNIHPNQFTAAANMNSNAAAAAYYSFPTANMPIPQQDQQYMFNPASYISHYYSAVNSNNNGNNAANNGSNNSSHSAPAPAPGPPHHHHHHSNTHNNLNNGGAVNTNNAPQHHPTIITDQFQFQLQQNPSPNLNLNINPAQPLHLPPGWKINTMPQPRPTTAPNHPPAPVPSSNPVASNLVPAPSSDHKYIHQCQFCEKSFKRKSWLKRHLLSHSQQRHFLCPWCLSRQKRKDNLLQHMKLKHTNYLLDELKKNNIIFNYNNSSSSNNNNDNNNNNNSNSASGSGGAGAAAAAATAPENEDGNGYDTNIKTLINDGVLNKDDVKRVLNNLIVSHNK
Assay: PBM E-score (8-mer binding enrichment) (E-score (-0.5 to 0.5)); higher = stronger / more preferred TF binding; most listed sequences are background and not binding sites
Details: protein concentration: 200 nM; construct: GST-full length
Experimental: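 Universal 'all 10-mer' protein binding microarrays (Agilent AMADID 015681) probed with GST-tagged S. cerevisiae TFs (full-length or DBD) made by in vitro transcription/translation (PURExpress), about 100-200 nM. Bound TF was detected with fluorescent anti-GST. Each ungapped 8-mer (which stands for itself and its reverse complement) is scored by the PBM enrichment score (E-score), a modified Wilcoxon-Mann-Whitney statistic from -0.5 to +0.5, computed with the Universal PBM Analysis Suite. Scale: above 0.35 generally sequence-specific binding.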

Sequence	PBM E-score
CGGGTGCA	-0.35
CAATGGCC	-0.243
CAGTGGGC	-0.203
GACATCAC	0.0612
CCCCTGCA	0.0448
AATGACTC	-0.00757
CATCACGA	0.0133
CTCTGTCC	-0.196
GACTTGCC	0.127
AATGACAG	-0.0936
ACAAGAGA	0.0365
CTAGGCAA	0.474
ATACATTC	0.209
CATATTGA	-0.0254
AGCCCGGA	-0.363
CATCTAAC	0.0422
CGGTGCTA	-0.348
CAAACGCA	0.161
CATTGGAG	-0.179
CTATGCAA	0.0284
CTCCAGTA	-0.0917
ACAATATA	0.192
TAACCAGA	0.0736
ACTGCCAT	-0.0362
CGCTCCTC	-0.269

Sequence	PBM E-score
ATGTACAA	0.332
ACGGTACC	0.0191
AATTCCTA	0.157
CTAGGCAG	-0.0742
ACATTATC	0.254
CGACCAGC	-0.196
ACACCGGT	-0.0775
ACATGGAA	0.245
GAGTCACA	-0.00139
CCACAACA	-0.0484
GCACATCC	0.0181
ACCCTACG	0.0488
AGTCATAC	-0.00851
ACCGGGAT	-0.301
CGTTCCGA	-0.159
CGTACCCC	-0.118
ACAAAGAT	0.0899
AGGCTGTA	0.159
ATCCTCTC	-0.349
GGGAGGCA	0.364
GTCGCAAA	0.0742
ACGCTATA	-0.0207
AGTTACTC	-0.0616
ATATTTTG	-0.0539
ACTGTGTA	0.349

Sequence	PBM E-score
ATGTCTCA	-0.114
CCCGTATA	-0.163
AAATTGAC	0.0359
CCTTTTAG	0.172
ATATATAA	0.0423
AGTGGGGA	-0.256
AAGCTCTC	-0.169
TTCCCGAA	0.0585
TCCTACGA	-0.0139
CCGAATAG	-0.139
ACGTGGAT	0.0404
ACGCAGTG	-0.108
ACCCCAAC	-0.0506
ACCTAGGC	-0.0303
CATCAGTC	-0.102
ATACAAAA	0.182
GCACGTAC	0.0875
ACACTTTC	0.0387
ACTCTGCT	-0.157
CCACACTC	-0.231
ATGCGAGC	-0.135
CCCCCTCA	-0.297
CATAGGGA	0.0898
GCTGTGTA	0.354
CTCTAAGC	-0.142

Sequence	PBM E-score
ACAAAGAC	0.135
AATCTGCA	-0.0362
CACAAGTG	0.128
CACGCGAA	0.159
AGAGGTAT	0.156
ATGATCGG	-0.22
ACGGTTAA	0.192
GTGTATGA	0.163
ATCCTTTA	0.104
ATTTATGA	-0.0763
CAGTTCAA	-0.064
AACCAAAA	0.0731
ATTTCTAG	0.0373
ACCCAGGA	-0.0555
CCCACATA	-0.135
TCTTTGAA	-0.104
CACTATCA	0.00033
GAACAAAA	0.181
TAGGCTAA	-0.0523
GTAGTGAA	0.0895
CCAGCACA	-0.0764
CGCTCCGC	-0.312
GCGGGTTA	0.0504
TCGTATCA	-0.0617
GAGCGCAA	-0.211

Sequence	PBM E-score
CCGCGAGA	-0.221
CGAGTCAC	-0.163
GACGTAAC	0.0796
GTGTAGGA	0.244
AGATTGAC	-0.0586
CGTTTGAC	-0.0155
AAATTATC	0.21
GAAGGATA	-0.0542
AGCAGAAG	-0.205
ACAGGCGC	0.371
CGAGGTTC	-0.201
AGGTTACC	0.238
ATGAAACC	0.0541
AACCTTTG	0.0887
GGCCGCCC	-0.204
AAGCGTCA	0.0636
GGTTAACC	-0.0693
CGATTCCA	-0.0808
AACATTCC	-0.0683
AGTCCCAA	-0.123
CGGAGTTC	0.0816
AATTGTGA	0.108
ATTGGGTC	-0.0411
CTAGCTAA	-0.042
ACCGCTCG	-0.12

Sequence	PBM E-score
GTTGAGTA	0.212
CCCAGAAC	-0.194
AGCGCGAC	-0.24
ATTTCTAA	-0.0305
CCATAACA	0.255
AGTCTTAA	-0.00547
ATTCGGCA	-0.066
CATCAAGC	-0.203
AGTCCAGC	-0.109
AATCCTAC	0.0549
ACCATCAT	0.0139
GTTAAATA	0.257
ATGAGCTA	-0.0694
AAGCTGTG	-0.083
GGGATTTA	-0.105
CACGTAAC	0.128
AGTATGTG	-0.00317
GCCGCTAC	-0.314
GAACGGCA	-0.0742
CAGCACGA	-0.0559
ACGGGATC	0.0431
TCCACCCA	-0.259
GAGAGTCA	-0.259
TGTGAGAA	-0.0671
CTAACCCA	-0.0185

Sequence	PBM E-score
CGGCCCCC	-0.414
CTTTAGGA	0.261
TGTTGAAA	0.291
GCACTGAA	0.0704
ATGTAGTA	0.308
ATCAGCTC	-0.142
TAAGTCTA	-0.0273
CTACTCAG	0.0407
AGCGGTCC	-0.235
AATGCCTG	0.352
TACGTGAA	0.161
CTAAGGGA	-0.208
AAAATTAA	0.129
CTTTCACA	0.206
AACAAGAG	0.251
CATGCCAC	0.0587
GCGGCCTA	-0.128
AGATAGTA	-0.0082
GGGAGCCA	-0.163
CGACATCA	-0.00785
AGCGGCGC	-0.193
GCCCTTAA	-0.0233
GAAGGGTC	-0.0602
ACAAGTCT	0.198
TATCGACA	0.209

Sequence	PBM E-score
ATAAGTTC	-0.0796
CCCGACGG	-0.168
TATCGCCA	-0.244
CATCACAA	0.19
AAAGCCGG	-0.133
AGACATAT	0.098
CACTCGTC	-0.185
GAACTACA	0.156
GTGATCCA	-0.152
GTGTACAA	0.325
GACCACTA	-0.0309
AGGAGAAA	-0.173
CTCTATGA	-0.0519
AAATTGCG	0.173
AATAGACA	0.157
GGCTTTAC	0.215
ACCGGAGT	-0.0522
CAGTGCCA	-0.156
ATCTAGAT	-0.173
AGGTTTGG	-0.141
ACAAGTCC	-0.0137
GAATAACA	0.277
CTCTTAGC	-0.0379
ATCAGTCA	0.165
ATGAACTC	-0.14

Sequence	PBM E-score
AACTGACA	0.155
GAAGCTTA	-0.0105
AATATATC	0.12
ATTACCAC	0.0997
AGGAAAAT	0.416
GATTAAGA	0.14
AATACCAA	-0.0344
GGATCAGA	-0.0306
AACTAATC	-0.188
CTATGTAC	0.378
CGGCACCA	-0.159
GAGACGGC	-0.0361
ACGCTCCC	-0.0438
AAGCCATA	-0.216
TCTTTTCA	0.0704
GAACGGTC	-0.253
AGATGACA	0.152
TCATCTAA	0.059
GGAGAAAA	-0.133
